{
  "source": "PubChem BioAssay AID588549",
  "about": "(Broad Institute, 2011)",
  "note": "Among all 360,000 compounds or so, about 780 (0.22%) were called active. This list was built around the results that the source calls inconclusive (neither active nor inactive); the mix of calls is not that of the screen. Cut-off read from the data, not from the text of the source: active = inhibition above about 8.5% (passing the limit was not always enough); inconclusive = no clear call, values can overlap the other calls.",
  "data": [
    {"tested_on": "Mycobacterium tuberculosis FadD28 fatty-acid-AMP ligase", "experiment": "inhibitors of FadD28 bisubstrate probe binding, primary screen, biochemical, fluorescence polarization, single point (AID 588549)", "details": "at 12.5 µM, hits give high values", "values": [
      {"molecule": "COc1ccc(C=Nc2cccnc2N)cc1", "inhibition": "inactive: -0.305%"},
      {"molecule": "CN(CC(=O)Nc1cccc(F)c1)C(=O)Cn1c(=O)cnc2ccccc21", "inhibition": "active: 54.9%"},
      {"molecule": "O=C(O)CCCN1C(=O)/C(=C/C=C/c2ccco2)SC1=S", "inhibition": "active: 19.4%"},
      {"molecule": "COc1ccc(Oc2c(C)oc3cc(OC(=O)N(C)C)ccc3c2=O)cc1", "inhibition": "inactive: -2.83%"},
      {"molecule": "CCc1nnc(NS(=O)(=O)c2ccc(Nc3ccc([N+](=O)[O-])c4nonc34)cc2)s1", "inhibition": "inconclusive: 10.6%"},
      {"molecule": "Cc1ccc(OCC(=O)NCCS(=O)(=O)N2CCN(c3ccccc3)CC2)cc1", "inhibition": "inconclusive: 6.56%"},
      {"molecule": "CCOc1cc(/C=C2\\N=C(SC)SC2=O)cc([N+](=O)[O-])c1OC(C)=O", "inhibition": "inconclusive: 8.16%"},
      {"molecule": "COC(=O)C1=C(C)N(CCc2c[nH]c3ccccc23)C(=O)C1", "inhibition": "inconclusive: 5.71%"},
      {"molecule": "COc1ccc(-c2nc(-c3cccs3)c(-c3cccs3)[nH]2)cc1OC", "inhibition": "inconclusive: 8.8%"},
      {"molecule": "COc1ccc(S(=O)(=O)N2CCCCC2)cc1NC(=O)CN1CCN(C(C)=O)CC1", "inhibition": "inconclusive: 7.89%"},
      {"molecule": "CCOC(=O)c1nc(NCc2cccnc2)c2ccccc2n1", "inhibition": "inconclusive: 4.57%"},
      {"molecule": "CC1=NN(c2nc(-c3ccc(Cl)cc3)cs2)C(=O)C1", "inhibition": "inconclusive: 8.11%"},
      {"molecule": "Oc1ccc(/C=N/N(Cc2ccccc2)c2ccccc2)c(O)c1O", "inhibition": "active: 15.6%"},
      {"molecule": "COc1cc(C(c2c(C(=O)O)[nH]c3ccccc23)c2c(C(=O)O)[nH]c3ccccc23)ccc1OCc1ccccc1", "inhibition": "active: 32.2%"},
      {"molecule": "C[C@@H]1CN([C@H](C)CO)C(=O)c2cc(NC(=O)Nc3ccc(C(F)(F)F)cc3)ccc2O[C@H]1CN(C)C(=O)Nc1ccc(F)cc1", "inhibition": "inconclusive: 5.01%"},
      {"molecule": "Cc1ccc2oc(C(=O)N3CCCCCC3)c(C)c2c1", "inhibition": "inconclusive: 4.46%"},
      {"molecule": "COc1cccc(CCNCc2ccc(SC)cc2)c1", "inhibition": "inconclusive: 8.4%"},
      {"molecule": "O=C1NC(=S)S/C1=C\\c1cc(Cl)cc(Cl)c1O", "inhibition": "active: 33%"},
      {"molecule": "N#Cc1ccccc1NC(=O)c1cc(=O)c2ccccc2o1", "inhibition": "active: 12.3%"},
      {"molecule": "Cc1ccc(NC(=O)CN(C)C(=O)c2cc(-c3ccco3)nc3ccccc23)cc1", "inhibition": "inconclusive: 8.88%"},
      {"molecule": "O=C(O)c1cc(Cl)ccc1-c1ccc(/C=C/c2cc(C(F)(F)F)[nH]c(=O)n2)o1", "inhibition": "inconclusive: 7.14%"},
      {"molecule": "Cc1c(/C=C2\\SC(=Nc3cccc(C(=O)O)c3)NC2=O)c2ccccc2n1C", "inhibition": "inconclusive: 10.1%"},
      {"molecule": "CC(=O)NC(c1ccc(F)c(F)c1)c1nc(-c2ccncc2)cs1", "note": "(configuration not stated)", "inhibition": "inactive: -2.93%"},
      {"molecule": "CCc1cccc2c(C(=O)CN3C(=O)N(C)C4(CCCCC4)C3=O)c[nH]c12", "inhibition": "inconclusive: 8.46%"},
      {"molecule": "COCC(=O)/C=C1\\Sc2ccccc2N1C", "inhibition": "inconclusive: 18.9%"},
      {"molecule": "COc1cc(NC(=O)COC(=O)CC2CC3CCC2C3)cc(OC)c1", "note": "(configuration not stated)", "inhibition": "inconclusive: 8.4%"},
      {"molecule": "Cc1cc(C)cc(OCC(=O)N(C)CC(=O)Nc2ccc(Cl)c(C(F)(F)F)c2)c1", "inhibition": "inactive: -2%"},
      {"molecule": "CC(=O)Nc1cnc(-c2ccc(O)cc2C)cn1", "inhibition": "inconclusive: 6.79%"},
      {"molecule": "Cc1ccc(S(=O)(=O)N(CC(=O)Nc2cc(C)ccc2C)C(=O)N2CCN(C)CC2)cc1", "inhibition": "inconclusive: 64.5%"},
      {"molecule": "CCc1ccc(S(=O)(=O)/N=C2\\C=C(Nc3ccc(O)cc3)C(=O)c3ccccc32)cc1", "inhibition": "inconclusive: 10.3%"},
      {"molecule": "CC(C)c1ccc(NC(=O)CCCC(=O)NCCc2ccccc2)cc1", "inhibition": "inconclusive: 3.82%"},
      {"molecule": "Cc1[nH]n(-c2ccc(Cl)cc2)c(=O)c1C=Nc1ccc(S(=O)(=O)N2CCOCC2)cc1", "inhibition": "inconclusive: 5.57%"},
      {"molecule": "CCn1c(CSc2n[nH]c(N)n2)nc2cc(C(=O)O)ccc21", "inhibition": "inconclusive: 7.85%"},
      {"molecule": "COc1ccc(C(=O)c2ccsc2N)cc1", "inhibition": "active: 8.59%"},
      {"molecule": "COc1ccc(/C=C2\\SC(=O)N(CC(=O)Nc3ccccc3O)C2=O)cc1OC", "inhibition": "inconclusive: 8.51%"},
      {"molecule": "O=C(NC1=NCCS1)c1ccc(-c2ccc(Cl)cc2)o1", "inhibition": "inactive: 0.78%"},
      {"molecule": "Cc1cc(NC(=O)Nc2cccc3ccccc23)no1", "inhibition": "inconclusive: 4.92%"},
      {"molecule": "CC(=O)c1cccc(NC(=O)CN(c2cccc(F)c2)S(C)(=O)=O)c1", "inhibition": "inconclusive: 8.16%"},
      {"molecule": "COc1ccc(N2C(=O)/C(=C/c3ccc(C)o3)C(=O)NC2=S)cc1", "inhibition": "inconclusive: 6.73%"},
      {"molecule": "CC(C)(C)c1ccc(-c2cc(-c3ccccc3O)[nH]n2)cc1", "inhibition": "inactive: -7.03%"},
      {"molecule": "CC(C)CN(C(=O)c1ccc(-n2cncn2)c([N+](=O)[O-])c1)C1CCS(=O)(=O)C1", "note": "(configuration not stated)", "inhibition": "active: 22%"},
      {"molecule": "CCOC(=O)N1CCN(C(=O)c2cc(S(=O)(=O)N3CCc4ccccc43)ccc2OC)CC1", "inhibition": "inactive: -1.77%"},
      {"molecule": "O=C1c2cc(O)cc(O)c2C(=O)c2c1cc(O)c([C@@H](CO)CCO)c2O", "inhibition": "active: 19.8%"},
      {"molecule": "O=c1c(O)cccc2cc(O)c(O)c(O)c12", "inhibition": "active: 16%"},
      {"molecule": "O=C(O)CCCNc1cc(N2CCN(C(=O)c3ccco3)CC2)c2noc3c2c1C(=O)c1ccccc1-3", "inhibition": "active: 17.5%"},
      {"molecule": "O=C(O)CC1OCC=C2CN3CCC45C6=CC(=O)C(=O)C([N+](=O)[O-])=C6NC4C1C2CC35", "note": "(configuration not stated)", "inhibition": "inconclusive: 3.63%"},
      {"molecule": "Cc1cccc(NC(=O)CN2C(=O)N/C(=C/c3cc(C)n(C(C)C)c3C)C2=O)c1", "inhibition": "active: 41.7%"},
      {"molecule": "COc1cccc(OCCn2cc(/C=N/NC(=O)c3ccncc3)c3ccccc32)c1", "inhibition": "inconclusive: 4.34%"},
      {"molecule": "COc1ccc(N2C(=O)NC(=O)/C(=C/c3ccc([N+](=O)[O-])s3)C2=O)cc1", "inhibition": "active: 35%"},
      {"molecule": "O=C(NC(NC(=S)N1CCOCC1)C(Cl)(Cl)Cl)c1cccc2ccccc12", "note": "(configuration not stated)", "inhibition": "inconclusive: 7.59%"},
      {"molecule": "C/C(=N\\NC(=O)c1ccc(Br)cc1)C1C(=O)c2ccccc2C1=O", "inhibition": "inconclusive: 7.78%"},
      {"molecule": "COc1cc(/C=N/n2c(COc3ccccc3)n[nH]c2=S)cc(OC)c1OC(C)=O", "inhibition": "inconclusive: 5.77%"},
      {"molecule": "CCOc1cc(/C=C(\\C#N)C(=O)Nc2cccc(C(=O)O)c2)ccc1OCc1ccc(Br)cc1", "inhibition": "inactive: -4.07%"},
      {"molecule": "O=C(COC(=O)CN1C(=O)NC2(CCCC2)C1=O)NCc1ccc(Cl)cc1Cl", "inhibition": "inactive: -2.58%"},
      {"molecule": "O=C(NC1CC1)c1cccc(Nc2ccc(-c3ccc4c(c3)OCCO4)nn2)c1", "inhibition": "inactive: -1.73%"},
      {"molecule": "O=C(O)c1[nH]c2ccccc2c1C(c1ccccc1)c1c(C(=O)O)[nH]c2ccccc12", "inhibition": "active: 22.1%"},
      {"molecule": "CCC1(C)Cc2ccccc2-c2nc(NCCO)[nH]c(=O)c21", "note": "(configuration not stated)", "inhibition": "inconclusive: 3.16%"},
      {"molecule": "Cn1ncnc2c(=O)n(C)c(=O)nc1-2", "inhibition": "inconclusive: 5.64%"},
      {"molecule": "Cc1cc(/C=C2\\SC(=S)NC2=O)c(C)n1C", "inhibition": "inconclusive: 9.62%"},
      {"molecule": "NS(=O)(=O)c1ccc2nc(NC(=O)c3ccc4c(c3)OCCO4)sc2c1", "inhibition": "inconclusive: 3.68%"},
      {"molecule": "CCCCCCn1cc(C(=O)O)c(=O)c2cc(F)c(N3CCN(C)CC3)cc21", "inhibition": "inconclusive: 21.4%"},
      {"molecule": "CCCCCCCCCCCCCCCCn1cc[n+](CC(C)=O)c1", "inhibition": "active: 35.6%"},
      {"molecule": "Cc1ccc(/C=N/Nc2ccc(C(=O)O)cc2)s1", "inhibition": "inconclusive: 6.95%"},
      {"molecule": "CC1(C)Cc2c(c(-c3ccco3)[nH]c(=O)c2C#N)CS1", "inhibition": "inactive: -3.31%"},
      {"molecule": "N#Cc1c(-c2ccc(Cl)cc2)n(O)c2ccccc12", "inhibition": "inconclusive: 9.35%"},
      {"molecule": "COc1ccc(NC(=O)Nc2ccc3c(c2)C(=O)N([C@@H](C)CO)C[C@@H](C)[C@@H](CN(C)S(=O)(=O)c2cccs2)O3)cc1", "inhibition": "inconclusive: 8.43%"},
      {"molecule": "O=C(O)c1ccc(N/N=C/c2cc3ccccc3nc2Cl)cc1", "inhibition": "inconclusive: 8.41%"},
      {"molecule": "COc1ccc(/C=C2\\SC(=O)N(CC(=O)Nc3cccnc3)C2=O)cc1OC", "inhibition": "inconclusive: 7.72%"},
      {"molecule": "NS(=O)(=O)c1ccc(NC(=O)COc2ccc(C(=O)c3ccc(F)cc3)cc2)cc1", "inhibition": "inconclusive: 8.05%"},
      {"molecule": "CCC(O)CNc1nc(SC)nc2sc3c(c12)CCN(C)C3", "note": "(configuration not stated)", "inhibition": "inactive: -0.737%"},
      {"molecule": "O=C(O)CCCN1C(=O)/C(=C/c2ccc(-c3nc4ccccc4s3)o2)SC1=S", "inhibition": "active: 8.61%"},
      {"molecule": "Nc1ccc(Cc2ccc(N)c(C(=O)O)c2)cc1C(=O)O", "inhibition": "inconclusive: 5.28%"},
      {"molecule": "CCN(CC)CCCn1c(=S)[nH]c2cc(Cl)ccc2c1=O", "inhibition": "inconclusive: 3.87%"},
      {"molecule": "O=C(CCNC(=O)c1ccc([N+](=O)[O-])cc1)Nc1ccccc1N1CCOCC1", "inhibition": "inconclusive: 4.32%"},
      {"molecule": "Cc1ccc([N+](=O)[O-])cc1N=Nc1c(-c2ccc([N+](=O)[O-])cc2)[nH]n(C(N)=S)c1=O", "inhibition": "inconclusive: 8.62%"},
      {"molecule": "O=C1c2ccccc2-c2onc3ccc(N4CCCC4)c1c23", "inhibition": "inconclusive: 8.16%"},
      {"molecule": "O=C(O)CCc1ccc(-c2ccc(Cl)cc2)n1Cc1ccco1", "inhibition": "inconclusive: 7.72%"},
      {"molecule": "O=C(c1cc2cc(F)ccc2[nH]1)N1CCc2ccccc2C1", "inhibition": "inconclusive: 3.44%"},
      {"molecule": "O=C(N/N=C/c1cc(Br)c(O)c(Br)c1)c1cc2c(ccc3ccccc32)o1", "inhibition": "active: 25.3%"},
      {"molecule": "Cn1nc(CC(=O)NC2CCCCCCCCCCC2)c2ccccc2c1=O", "inhibition": "inconclusive: 6.61%"},
      {"molecule": "Cc1ccc2ccccc2c1C(O)c1ncc(-c2ccccc2)[nH]1", "note": "(configuration not stated)", "inhibition": "inactive: -2.21%"},
      {"molecule": "CN(Cc1cccc([N+](=O)[O-])c1)Cc1cccc2ccccc12", "inhibition": "inconclusive: 3.88%"},
      {"molecule": "CN(C)S(=O)(=O)c1cccc(NC(=O)CCc2c[nH]c3ccccc23)c1", "inhibition": "inconclusive: 9.46%"},
      {"molecule": "Cc1cc2cc(CNC(=O)Nc3ccc(Cl)c(Cl)c3)ccc2n1C", "inhibition": "active: 12.7%"},
      {"molecule": "CC(=O)NN1C(=O)/C(=C\\c2ccc(Br)o2)SC1=S", "inhibition": "inconclusive: 5.8%"},
      {"molecule": "Cc1ccc(NC(=S)C2=C(O)c3sccc3N(C)S2(=O)=O)cc1", "inhibition": "inconclusive: 7.84%"},
      {"molecule": "CCn1cc(CN2CCC(C(=O)Nc3ccc(Oc4cccnc4)cc3)CC2)cn1", "inhibition": "inconclusive: 9%"}
    ]}
  ]
}
